Measured values reported in paper PMC4336329 (PLoS ONE, 2015).
The whole screen tested about 310,000 compounds, of which about 14,000 (4.5%) showed an effect of 50% or more. The effect is printed as a negative number. Some of the results follow.

target: human ether-à-go-go-related gene (hERG) potassium channel (human, UniProt Q12809); experiment: primary screen, population patch clamp on CHO cells stably expressing hERG
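Note: peak tail current of the secondary pulse compared with the same well before compound.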

human ether-à-go-go-related gene (hERG) potassium channel, sequence (Q12809 whole entry, looked up): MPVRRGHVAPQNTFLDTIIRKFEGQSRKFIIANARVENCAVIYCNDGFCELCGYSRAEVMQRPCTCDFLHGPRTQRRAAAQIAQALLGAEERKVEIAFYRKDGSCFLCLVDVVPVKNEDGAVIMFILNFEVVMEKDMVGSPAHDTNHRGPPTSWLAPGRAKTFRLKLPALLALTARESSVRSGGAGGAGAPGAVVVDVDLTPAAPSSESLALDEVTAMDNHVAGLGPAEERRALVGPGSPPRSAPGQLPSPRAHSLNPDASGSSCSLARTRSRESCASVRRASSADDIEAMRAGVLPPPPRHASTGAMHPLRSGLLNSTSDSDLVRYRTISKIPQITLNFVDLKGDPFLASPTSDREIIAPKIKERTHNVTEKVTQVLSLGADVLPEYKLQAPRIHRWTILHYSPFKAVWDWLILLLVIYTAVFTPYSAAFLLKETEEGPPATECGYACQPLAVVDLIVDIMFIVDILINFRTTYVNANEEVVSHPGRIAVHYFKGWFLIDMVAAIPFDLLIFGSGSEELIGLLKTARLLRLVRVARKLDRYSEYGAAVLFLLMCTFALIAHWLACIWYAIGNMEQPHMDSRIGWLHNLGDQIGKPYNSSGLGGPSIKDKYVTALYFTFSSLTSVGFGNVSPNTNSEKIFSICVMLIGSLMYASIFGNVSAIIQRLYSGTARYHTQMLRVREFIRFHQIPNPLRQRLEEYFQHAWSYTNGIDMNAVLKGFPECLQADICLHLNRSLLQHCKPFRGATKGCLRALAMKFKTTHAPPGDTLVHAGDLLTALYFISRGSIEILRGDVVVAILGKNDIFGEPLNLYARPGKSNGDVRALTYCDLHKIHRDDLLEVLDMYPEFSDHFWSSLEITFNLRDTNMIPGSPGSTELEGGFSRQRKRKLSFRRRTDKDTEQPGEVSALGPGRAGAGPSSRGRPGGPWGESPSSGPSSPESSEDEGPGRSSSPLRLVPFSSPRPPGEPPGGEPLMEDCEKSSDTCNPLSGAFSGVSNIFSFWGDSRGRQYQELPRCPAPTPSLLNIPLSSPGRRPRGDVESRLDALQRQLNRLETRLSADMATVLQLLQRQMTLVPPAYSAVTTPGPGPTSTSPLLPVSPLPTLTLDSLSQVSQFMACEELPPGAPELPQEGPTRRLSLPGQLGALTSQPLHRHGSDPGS

Going from `CN(C)C(Cc1ccc(C#N)cc1)C(=O)c1ccccc1` (stereo not drawn) to `CN(CC(=O)Nc1ccccc1)CC(=O)Nc1ccc(F)cc1`, the “hERG current change (%, negative = inhibition) at 10uM” value rises from -6.72% to 24.1%.

First: O=C(O)/C(=C/c1ccco1)NC(=O)c1ccc(Br)o1
Second: Cc1cc(C)cc(NC(=O)COC(=O)[C@@H](NC(=O)c2ccco2)C(C)C)c1
The “hERG current change (%, negative = inhibition) at 10uM” value of the first is higher: 11.9% for the first, -17.1% for the second.

Compared with `COc1cccc(Nc2ncccc2C(=O)Nc2ccccc2)c1`, `O=c1c2ccccc2c(-c2ccccc2)nn1Cc1c(Cl)cccc1Cl` is higher in “hERG current change (%, negative = inhibition) at 10uM” value: -15.7% for the first, -0.451% for the second.

Compared with `O=C(CSc1nnnn1C1CC2C=CC1C2)Nc1ccc(C(=O)O)cc1` (stereo not drawn), `CC(=O)Nc1ccc(-n2cnnn2)cc1` is higher in “hERG current change (%, negative = inhibition) at 10uM” value: -6.04% for the first, 8.43% for the second.

Compared with `O=C(/C=C/c1ccccc1Cl)Nc1ccc2c(c1)C(=O)NC2=O`, `Cc1ccc(NCC(=O)N/N=C/c2cc3ccccc3nc2Cl)cc1` is lower in “hERG current change (%, negative = inhibition) at 10uM” value: 17.7% for the first, -6.21% for the second.

Going from `CC1CC(C)(C)NC(=S)N1CCCC(=O)N1CCN(c2ccccc2F)CC1` (stereo not drawn) to `CCn1c(CNc2ccccc2Cl)nnc1SCC(=O)OC1CCCCC1`, the “hERG current change (%, negative = inhibition) at 10uM” value falls from -4.98% to -21%.

Going from `COc1ccc(CNC(=O)CN(c2cccc(OC)c2)S(C)(=O)=O)cc1` to `COc1ccc(NC(=O)c2c[nH]c(=O)n(-c3ccc(C)c(C)c3)c2=O)cc1OC`, the “hERG current change (%, negative = inhibition) at 10uM” value rises from 2.47% to 9.17%.

Compared with `Cc1ccc(NC(=O)C2CCN(C(=O)NC3CCCCC3)CC2)cc1Cl`, `CN(C)C(=O)N1CCCC(C(=O)NCc2ccc(F)cc2Cl)C1` (stereo not drawn) is lower in “hERG current change (%, negative = inhibition) at 10uM” value: 17% for the first, 7.68% for the second.

Compared with `Cc1cc(=O)[nH]c(SCC(=O)Nc2nnc(CC(C)C)s2)n1`, `Cc1csc(SCC(=O)c2c(N)n(C)c(=O)n(C)c2=O)n1` is higher in “hERG current change (%, negative = inhibition) at 10uM” value: 10.9% for the first, 11.2% for the second.

Going from `Cc1ccnc(NC(=O)/C=C/c2cccs2)c1` to `O=C(O)CSc1nnc(-c2cccs2)n1-c1ccc(Cl)cc1`, the “hERG current change (%, negative = inhibition) at 10uM” value falls from 1.27% to -6.94%.

Going from `Cc1onc(-c2ccccc2Cl)c1C(=O)OCC(=O)N1CCCc2ccccc21` to `CC(=O)N1CCc2cc(NC(=O)c3ccc(C)cc3)ccc21`, the “hERG current change (%, negative = inhibition) at 10uM” value rises from 7.75% to 13.1%.

First: CCn1cc(C(C)NC(=O)Nc2ccc3c(c2)OCO3)c(C)n1 (stereo not drawn)
Second: CCC(=O)Nc1c2c(nn1-c1cccc(Cl)c1)CSC2
The “hERG current change (%, negative = inhibition) at 10uM” value of the first is higher: 61.5% for the first, -13.6% for the second.

First: CCC(C)(C)NC(=O)C(c1cccc(OC)c1OC)N(CCC(C)C)C(=O)CCC(=O)Nc1cc(C)on1 (stereo not drawn)
Second: CCCCN(C(=O)COC(=O)CSc1cc(C)c2ccccc2n1)c1c(N)n(CCC)c(=O)[nH]c1=O
The “hERG current change (%, negative = inhibition) at 10uM” value of the first is higher: 11.6% for the first, 3.06% for the second.

First: CCCNC(C)C(=O)Nc1c(C)csc1C(=O)OC.Cl (stereo not drawn)
Second: CC(OC(=O)c1ccc(CN2CCCC2=O)cc1)C(=O)Nc1ccc(Cl)cc1 (stereo not drawn)
The “hERG current change (%, negative = inhibition) at 10uM” value of the first is higher: -4.01% for the first, -8.49% for the second.

Compared with `CC1=Nn2c(nc3sc4c(c3c2=O)CCCC4)SC1`, `Cc1ccc(N2C(=O)CC(Cc3cc(C)cc(C)c3)C2=O)cc1` (stereo not drawn) is higher in “hERG current change (%, negative = inhibition) at 10uM” value: -24.5% for the first, 6.47% for the second.

Compared with `CCN(CC)S(=O)(=O)C1CCS(=O)(=O)C1` (stereo not drawn), `CCN(CC)S(=O)(=O)c1ccc(Nc2cc(C)nc3ncnn23)cc1` is lower in “hERG current change (%, negative = inhibition) at 10uM” value: 8.51% for the first, -26.9% for the second.

Compared with `CC1(C)Cc2nc(-c3ccccc3)nc(NNC(=O)c3ccco3)c2CO1`, `CC(OC(=O)Cn1[nH]c(=O)c2ccccc2c1=O)C(=O)c1ccccc1` (stereo not drawn) is lower in “hERG current change (%, negative = inhibition) at 10uM” value: 18.2% for the first, 13.8% for the second.

First: CC(=O)Nc1ccc(S(=O)(=O)NCCC(=O)N2CCCCC2)cc1
Second: O=C(c1ccc(CSc2ccccc2)cc1)N1CCCCCC1
The “hERG current change (%, negative = inhibition) at 10uM” value of the first is higher: 16.1% for the first, -8.84% for the second.

Going from `CCCCc1nc2cc(Cl)ccc2o1` to `CN(C)CCN(Cc1ccccc1)c1ccccn1.Cl`, the “hERG current change (%, negative = inhibition) at 10uM” value falls from 10.2% to -48.6%.

Going from `C=C[C@]1(C)C[C@H]1[C@H](NP(=O)(c1ccccc1)c1ccccc1)c1ccccc1` to `CN1C(=O)N(C)C2(c3ccccc3)NNC(N)=NC12c1ccccc1.Cl` (stereo not drawn), the “hERG current change (%, negative = inhibition) at 10uM” value falls from 27.9% to 2.59%.

Compared with `Nc1nnc(SCC(=O)NCCNC(=O)CSc2nnc(N)s2)s1`, `CSc1ccccc1OCc1cc(C(=O)N2CCC(c3ccncc3)CC2)no1` is lower in “hERG current change (%, negative = inhibition) at 10uM” value: 11.3% for the first, -58.5% for the second.

Going from `C/C(=N\NC(=O)c1cccc(F)c1)c1ccc(Br)s1` to `Fc1ccc(OCc2nc(-c3ccncc3)n[nH]2)cc1`, the “hERG current change (%, negative = inhibition) at 10uM” value falls from 26.4% to 5.74%.

`O=C(Nc1nc(-c2ccccn2)cs1)C12CC3CC(CC(O)(C3)C1)C2` was tested, and the “hERG current change (%, negative = inhibition) at 10uM” value was 16.7%.
